This is one part of the list. The list includes weakly bound sequences.
These sequences were tested against T1, MBP-FoxP3dN (UniProt Q99JB6) (assay: PD-seq (MBP pull-down with sequencing)). Settings: 20 mM Tris-HCl pH 7.5, 100 mM NaCl, 1.5 mM MgCl2, 0.4 uM protein, 0.1 uM dsDNA library, 30 min, room temperature, amylose pull-down; high values mean tight binding; double strand, one strand shown.
T1 sequence: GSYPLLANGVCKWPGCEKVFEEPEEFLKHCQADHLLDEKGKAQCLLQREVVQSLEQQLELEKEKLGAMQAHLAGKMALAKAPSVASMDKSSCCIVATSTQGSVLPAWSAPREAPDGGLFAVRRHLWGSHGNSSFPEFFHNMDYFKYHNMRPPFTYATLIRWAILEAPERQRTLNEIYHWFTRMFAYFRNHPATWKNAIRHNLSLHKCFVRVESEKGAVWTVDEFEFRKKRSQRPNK

**Q.** With “GATGATTGTTCTCCCAGCTGATGAATTCGCTCTATCGAGTAAACAAATTTTCCTAATCTTTCTGTTCAAGCGCCATCTAC” as the sequence, how does the binding signal (RPM ratio (pull-down/input)) read?
**A.** 0.357

**Q.** Which binding signal (RPM ratio (pull-down/input)) does the source give for “GATGATTGTTCTCCCAGCTGATGAATTTCGCAATTCGAGTAAACAAATTTTCCTAATCTTTCTGTTCAAGCGCCATCTAC” here?
**A.** 4.55

**Q.** How did the binding signal (RPM ratio (pull-down/input)) turn out when “GATGATTGTTCTCCCAGCTGATGAATTGTCCGGATCGAGTAAACAAATTTTCCTAATCTTTCTGTTCAAGCGCCATCTAC” was run?
**A.** 0.197

**Q.** For “GATGATTGTTCTCCCAGCTGATGAATTAACGAGATCGAGTAAACAAATTTTCCTAATCTTTCTGTTCAAGCGCCATCTAC”, which binding signal (RPM ratio (pull-down/input)) is on record?
**A.** 0.238

**Q.** With “GATGATTGTTCTCCCAGCTGATGAATTCGGGTGTTCGAGTAAACAAATTTTCCTAATCTTTCTGTTCAAGCGCCATCTAC” as the sequence, how does the binding signal (RPM ratio (pull-down/input)) read?
**A.** 0.701

**Q.** How did the binding signal (RPM ratio (pull-down/input)) turn out when “GATGATTGTTCTCCCAGCTGATGAATTTTCGAGTTCGAGTAAACAAATTTTCCTAATCTTTCTGTTCAAGCGCCATCTAC” was run?
**A.** 0.414

**Q.** With “GATGATTGTTCTCCCAGCTGATGAATTTCCGGTGTCGAGTAAACAAATTTTCCTAATCTTTCTGTTCAAGCGCCATCTAC” as the sequence, how does the binding signal (RPM ratio (pull-down/input)) read?
**A.** 0.41

**Q.** For “GATGATTGTTCTCCCAGCTGATGAATTTGCTGAATCGAGTAAACAAATTTTCCTAATCTTTCTGTTCAAGCGCCATCTAC”, which binding signal (RPM ratio (pull-down/input)) is on record?
**A.** 0.458

**Q.** For “GATGATTGTTCTCCCAGCTGATGAATTGTCGTCCTCGAGTAAACAAATTTTCCTAATCTTTCTGTTCAAGCGCCATCTAC”, which binding signal (RPM ratio (pull-down/input)) is on record?
**A.** 0.673

**Q.** “GATGATTGTTCTCCCAGCTGATGAATTGAGCCCCTCGAGTAAACAAATTTTCCTAATCTTTCTGTTCAAGCGCCATCTAC” was tested. Which binding signal (RPM ratio (pull-down/input)) did it give?
**A.** 0.983

**Q.** For “GATGATTGTTCTCCCAGCTGATGAATTACGCCTGTCGAGTAAACAAATTTTCCTAATCTTTCTGTTCAAGCGCCATCTAC”, which binding signal (RPM ratio (pull-down/input)) is on record?
**A.** 5.4

**Q.** Which binding signal (RPM ratio (pull-down/input)) does the source give for “GATGATTGTTCTCCCAGCTGATGAATTGTGGGTTTCGAGTAAACAAATTTTCCTAATCTTTCTGTTCAAGCGCCATCTAC” here?
**A.** 1.32

**Q.** How did the binding signal (RPM ratio (pull-down/input)) turn out when “GATGATTGTTCTCCCAGCTGATGAATTCGTCACATCGAGTAAACAAATTTTCCTAATCTTTCTGTTCAAGCGCCATCTAC” was run?
**A.** 0.953

**Q.** How did the binding signal (RPM ratio (pull-down/input)) turn out when “GATGATTGTTCTCCCAGCTGATGAATTTGACCCATCGAGTAAACAAATTTTCCTAATCTTTCTGTTCAAGCGCCATCTAC” was run?
**A.** 0.388

**Q.** For “GATGATTGTTCTCCCAGCTGATGAATTCCCTTTATCGAGTAAACAAATTTTCCTAATCTTTCTGTTCAAGCGCCATCTAC”, which binding signal (RPM ratio (pull-down/input)) is on record?
**A.** 0.403

**Q.** How did the binding signal (RPM ratio (pull-down/input)) turn out when “GATGATTGTTCTCCCAGCTGATGAATTTAATAATTCGAGTAAACAAATTTTCCTAATCTTTCTGTTCAAGCGCCATCTAC” was run?
**A.** 0.48

**Q.** Which binding signal (RPM ratio (pull-down/input)) does the source give for “GATGATTGTTCTCCCAGCTGATGAATTCGTTTGCTCGAGTAAACAAATTTTCCTAATCTTTCTGTTCAAGCGCCATCTAC” here?
**A.** 4.62

**Q.** Which binding signal (RPM ratio (pull-down/input)) does the source give for “GATGATTGTTCTCCCAGCTGATGAATTATGACTTTCGAGTAAACAAATTTTCCTAATCTTTCTGTTCAAGCGCCATCTAC” here?
**A.** 1.49
